Measurements as given in PubChem BioAssay AID1458 (National Center for Advancing Translational Sciences (NCATS), 2008).
About 5,900 (2.8%) of roughly 210,000 compounds were called active. The inconclusive results got no clear call from the source; some entries with a clear call stand among them for comparison. The call rests on the fitted dose curve; in most records, active means well fitted activation curve with a large enough effect; inconclusive means small, poorly fitted or top-dose-only effect; inactive means no such curve, though single readings can be large or run the other way. Potencies of inconclusive entries are doubtful fits and often do not repeat.

experiment: qHTS Assay for Enhancers of SMN2 Splice Variant Expression; details: HEK293 SMN2-luciferase splicing reporter, luminescence, 30-36 h; activity change, positive = activation: at 46.1 µM (top of the series); further: nearly all actives have a fitted effect of over 55% in size; on activity change, positive = activation: % of control where 0% means no effect
How it was run: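 HEK293 cells carry an SMN2 […]–luciferase reporter in which exon 7 inclusion puts luciferase in frame. Cells were plated 10-12 h before compound addition, then incubated 30-36 h at 37C. ONE-Glo luminescence was read; sodium butyrate at 4.5 mM final served as control.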
Potency means the concentration at half of the fitted maximal effect; tags describe the fitted curve by direction and shape.

Q: With COC(=O)N1CC=CC1(C)C(=O)NCC1CC1 (stereo not given) as the molecule, how does the Potency read?
A: inconclusive: 20 µM [activator, single point]

Q: Which Potency does the source give for O=C(Nc1cccc(F)c1)c1sc(Cl)nc1-c1ccccc1 here?
A: inconclusive: 5.62 µM [activator, single point]

Q: With CCc1ccc(CCC(=O)Nc2ccccc2C(=O)O)o1 as the molecule, how does the Potency read?
A: inconclusive: 31.6 µM [activator, single point]

Q: For CC(=Nc1ccc(O)cc1)c1sc2ccccc2c1O, which Potency is on record?
A: active: 10 µM

Q: Which Potency does the source give for COc1ccc(C(=O)COC(=O)c2ccc(N(C)C)cc2)cc1 here?
A: inactive

Q: With Cc1cc(C)c2c(n1)sc1c(N3CCN(CCO)CC3)ncnc12 as the molecule, how does the Potency read?
A: inconclusive: 0.447 µM [activator, full curve, poor fit]

Q: With Cc1ccc(OC(=O)c2ccc3nc(C)sc3c2)cc1 as the molecule, how does the Potency read?
A: active: 14.1 µM

Q: Which Potency does the source give for Cc1cc(/C=C(\C#N)C(=O)NC2CCCCCC2)c(C)[nH]1 here?
A: inactive

Q: Which Potency does the source give for O=C(NCc1cccs1)C1CCCN1C(=O)Nc1ccccc1 (stereo not given) here?
A: inconclusive: 0.708 µM [activator, full curve, poor fit]

Q: With O=C(Nc1ccc(N2CCOCC2)c(Cl)c1)c1ccc([N+](=O)[O-])o1 as the molecule, how does the Potency read?
A: inconclusive: 25.1 µM [activator, single point]

Q: With CCN(CC)C(=O)CSc1nc2ccccc2o1 as the molecule, how does the Potency read?
A: inconclusive: 12.6 µM [activator, partial curve]

Q: Which Potency does the source give for COc1ccc(CN(CC2CCCO2)S(=O)(=O)c2ccc(C(=O)O)cc2)cc1OC (stereo not given) here?
A: inactive

Q: With CCN(CC)S(=O)(=O)c1cc(C(=O)Oc2cccc(-c3cnc4ccccc4n3)c2)ccc1Br as the molecule, how does the Potency read?
A: inconclusive: 14.1 µM [activator, partial curve, poor fit]

Q: Which Potency does the source give for Cc1ccc(OCC(O)CN2C(=O)NC(C)(C)C2=O)cc1 (stereo not given) here?
A: inconclusive: 5.62 µM [activator, single point]

Q: With CC(C)CN1C(=O)NC(NC(=O)c2cccs2)(C(F)(F)F)C1=O (stereo not given) as the molecule, how does the Potency read?
A: inconclusive: 0.398 µM [activator, full curve, poor fit]

Q: With Cc1ccc(NC(=O)CSc2nnc(N)s2)c([N+](=O)[O-])c1 as the molecule, how does the Potency read?
A: inconclusive: 17.8 µM [activator, single point]

Q: With O=C(NC(Cc1c[nH]c2ccccc12)C(=O)O)c1ccccc1 (stereo not given) as the molecule, how does the Potency read?
A: inconclusive: 0.0224 µM [activator, full curve, poor fit]

Q: For Cc1ccc(NC(=S)NNC(=S)NC2CCCCC2)cc1, which Potency is on record?
A: inconclusive: 1.58 µM [activator, partial curve, poor fit]

Q: For CCCCCNCc1ccc(Cl)cc1, which Potency is on record?
A: inconclusive: 31.6 µM [activator, single point]

Q: Which Potency does the source give for COc1ccc(-n2cc(-c3ccccc3)nc2SC)cc1 here?
A: active: 20 µM

Q: With COc1cc2c(cc1OC)C(C)N(C(=O)c1cccc([N+](=O)[O-])c1)CC2 (stereo not given) as the molecule, how does the Potency read?
A: inconclusive: 14.1 µM [activator, partial curve, poor fit]

Q: Which Potency does the source give for O=C(/C(C=Nc1cccc(C(F)(F)F)c1)=C(/O)c1ccco1)C(F)(F)F here?
A: inconclusive: 0.0032 µM [activator, full curve, poor fit]

Q: With Cc1ccc2nc(-c3ccc(N4CCOCC4)cc3)c(Nc3ccccc3C)n2c1 as the molecule, how does the Potency read?
A: inconclusive: 3.55 µM [activator, full curve, poor fit]

Q: With CCOc1ccc(NC(=O)COc2ccccc2)c([N+](=O)[O-])c1 as the molecule, how does the Potency read?
A: inconclusive: 35.5 µM [activator, single point]

Q: With c1ccn2c(SCc3ccc4c(c3)OCO4)nnc2c1 as the molecule, how does the activity change, positive = activation read?
A: inconclusive: 32.6% [activator]

Q: Which Potency does the source give for O=C(Nc1nc2ccccc2[nH]1)c1cccs1 here?
A: active: 3.55 µM

Q: Which Potency does the source give for COc1ccc2c(c1)c(N=O)c(O)n2C here?
A: inconclusive: 35.5 µM [activator, single point]

Q: Which Potency does the source give for COC(=O)CCC(=O)c1oc2ccc(OC)cc2c1N here?
A: inconclusive: 25.1 µM [activator, single point]

Q: Which activity change, positive = activation does the source give for O=C(Nn1cnnc1)c1cc2c(s1)CCCCC2 here?
A: inconclusive: 36.6% [activator]

Q: Which Potency does the source give for COCC(=O)Nc1cc(OC)c(Cl)cc1OC here?
A: inconclusive: 5.62 µM [activator, single point]

Q: Which Potency does the source give for O=c1cc(C(F)(F)F)nc(-c2ccccc2)[nH]1 here?
A: inactive

Q: Which Potency does the source give for CC(C)CNS(=O)(=O)c1ccc(S(=O)(=O)N2CCC3(CC2)OCCO3)cc1 here?
A: inconclusive: 2 µM [activator, partial curve, poor fit]

Q: With CN(C)S(=O)(=O)Nc1ccccc1C(N)=O as the molecule, how does the Potency read?
A: inconclusive: 0.447 µM [activator, full curve, poor fit]

Q: Which activity change, positive = activation does the source give for CCOc1ccc2[nH]c(=O)c(C(c3nnnn3CCOC)N3CCOCC3)cc2c1 (stereo not given) here?
A: inconclusive: 33.5% [activator]

Q: Which Potency does the source give for Nc1ccc2nc(-c3ccc(Cl)cc3)[nH]c2c1 here?
A: inconclusive: 22.4 µM [activator, single point]

Q: For Cc1cccc2c(C(=O)n3cccn3)cc(-c3ccccc3Cl)nc12, which Potency is on record?
A: inconclusive: 0.0158 µM [activator, full curve]

Q: For COc1cccc(CNC(=O)C2=C(C)C(=O)OC23CCC(C)CC3)c1 (stereo not given), which Potency is on record?
A: inconclusive: 14.1 µM [activator, single point]

Q: For Cc1ccc(C(=O)Nc2nnc(SCC(=O)N3CCCc4ccccc43)s2)cc1, which Potency is on record?
A: inconclusive: 3.16 µM [activator, partial curve, poor fit]

Q: With COc1cccc(CN2CCN(C(=O)c3cccs3)CC2)c1OC as the molecule, how does the Potency read?
A: inconclusive: 10 µM [activator, single point]

Q: Which activity change, positive = activation does the source give for COc1ccccc1NC(=S)NNC(=O)c1ccc(O)cc1 here?
A: inconclusive: 40.8% [activator]

Q: Which Potency does the source give for NC(=O)CCCCC(=O)OCCCc1cccs1 here?
A: inconclusive: 2.82 µM [activator, partial curve]

Q: With COc1ccc2c(c1O)Cc1ccccc1C2=O as the molecule, how does the Potency read?
A: inconclusive: 12.6 µM [activator, single point]

Q: With COc1ccc(-n2cnc3cc(N)ccc32)cc1 as the molecule, how does the Potency read?
A: active: 14.1 µM

Q: For CCOC(=O)C1CCN(Cc2nc(-c3ccc(OC)c(OC)c3)no2)CC1, which Potency is on record?
A: inconclusive: 0.355 µM [activator, partial curve, poor fit]

Q: Which Potency does the source give for Cc1cc(C)c(S(=O)(=O)ON2C(=O)c3ccccc3C2=O)cc1C here?
A: inconclusive: 3.16 µM [activator, single point]
